About 230 (0.21%) of roughly 110,000 compounds showed an effect of 50% or more. The list shows a part of the results.
biological target: DPAP1 (Plasmodium falciparum, UniProt Q8IIJ9); assay: primary screen, percent inhibition; read by cleavage of a fluorogenic dipeptide substrate; higher = more effect of the substance; set-up: species or system P. falciparum D10 trophozoite lysates; single well
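Note: 30 min substrate incubation versus DMSO and 10 µM JCP410 controls.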

Sequence of DPAP1 (Q8IIJ9 whole entry, looked up): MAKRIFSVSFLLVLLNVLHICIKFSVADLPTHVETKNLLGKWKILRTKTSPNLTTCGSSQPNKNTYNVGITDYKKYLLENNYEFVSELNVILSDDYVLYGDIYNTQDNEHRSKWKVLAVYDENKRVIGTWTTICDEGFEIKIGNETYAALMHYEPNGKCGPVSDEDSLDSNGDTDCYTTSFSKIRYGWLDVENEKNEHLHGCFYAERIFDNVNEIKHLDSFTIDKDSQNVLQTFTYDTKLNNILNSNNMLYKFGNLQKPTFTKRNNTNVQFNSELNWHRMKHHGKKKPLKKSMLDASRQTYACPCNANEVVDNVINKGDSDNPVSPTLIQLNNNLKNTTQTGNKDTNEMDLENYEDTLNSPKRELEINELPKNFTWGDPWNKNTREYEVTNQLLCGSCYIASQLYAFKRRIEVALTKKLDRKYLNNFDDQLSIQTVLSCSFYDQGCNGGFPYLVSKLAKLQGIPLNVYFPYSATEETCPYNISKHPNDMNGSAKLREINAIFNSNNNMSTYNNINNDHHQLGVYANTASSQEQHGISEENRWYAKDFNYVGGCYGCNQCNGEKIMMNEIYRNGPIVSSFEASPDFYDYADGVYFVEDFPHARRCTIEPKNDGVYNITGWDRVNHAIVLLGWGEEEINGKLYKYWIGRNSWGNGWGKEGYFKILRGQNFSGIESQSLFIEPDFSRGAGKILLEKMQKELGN

Row | SMILES | % Inhibition @ 10 uM [%]
1 | CCOC(=O)c1cnc2ccccc2c1NCCc1ccccc1 | 2.26
2 | Cc1cc(/C=C2\SC(=O)NC2=O)c(C)n1-c1ccc2c(c1)OCO2 | 6.59
3 | COc1ccc(-c2noc(CC(=O)Nc3nc4ccc(OC)cc4s3)n2)cc1 | -2.85
4 | CC(NC(=O)CN(c1ccc(F)cc1)S(=O)(=O)c1ccccc1)c1ccccc1 (stereo not shown) | -3.49
5 | Cc1ccc(NC(=O)Nc2ccc3c(c2)nc(C)n3C)cc1 | -6.68
6 | Cc1ccccc1OCC(=O)Nc1cccc(N2C(=O)c3ccc([N+](=O)[O-])cc3C2=O)c1 | 3.47
7 | CCOc1ccc(N2CC(C(=O)Nc3cccc(C)c3C)CC2=O)cc1 (stereo not shown) | -5.19
8 | Cc1ccc(C)c(S(=O)(=O)Nc2ccc(C(=O)N3CCCCC3)cc2)c1 | -5.86
9 | O=c1cc2nc(-c3ccccc3)nc(SCc3ccc(Br)cc3)n2[nH]1 | 6.41
10 | CCOc1ccc(N2C(=O)CC(N3CC(C)CC(C)C3)C2=O)cc1 (stereo not shown) | 4.83
11 | C=CCn1c(C)c(/C=C(/C#N)C(=O)Nc2ccc(OC)cc2)c2ccccc21 | -3.09
12 | CCOC(=O)c1cnc2nc(SC)nn2c1O | -3.77
13 | Cc1cccc(-c2nc(SCC(=O)NCc3ccco3)c(-c3ccccc3)[nH]2)c1 | -3.39
14 | OC(COc1ccccc1F)CN1CCN(Cc2ccc(Cl)cc2)CC1 (stereo not shown) | -4.66
15 | COC(=O)c1nc2n(n1)C(c1ccccc1)C1=C(O)CC(C)(C)CC1=N2 (stereo not shown) | -4.1
16 | O=C(c1ccccc1)N1CCN(C(=O)c2ccncc2)CC1 | -2.94
17 | COc1cc(C2NC(=O)c3[nH]nc(-c4ccc(C)cc4)c32)ccc1O (stereo not shown) | -7.16
18 | COc1cc(CN2CCN(C3CCCC(C)C3)CC2)cc(OC)c1OC (stereo not shown) | -11
19 | CSc1ccc(Cn2cccc2C2=NC(C(C)C)CO2)cc1 (stereo not shown) | 0.163
20 | Cc1ccc(-c2noc(CCC(=O)NCCCN3CC(C)CC(C)C3)n2)cc1 (stereo not shown) | 7.15
21 | Cc1nn(-c2ccccc2)c2sc(C(=O)Nc3ccc(F)cc3)cc12 | 5.39
22 | COc1cc(C)c(CNc2ccc(C)c(C)c2)cc1C | -6.08
23 | Cc1nc2nc(CC(=O)O)nn2c(O)c1Br | 3.47
24 | COc1cc2c(cc1OC)C(c1cccc(OC)c1OC)CC(=O)N2 (stereo not shown) | 5.39
25 | COc1ccc(Cl)cc1/C=C1\SC(=O)N(C)C1=O | 2.17
26 | CC(C)(C)C(=O)CC(c1ccccc1)C1C(=O)c2ccccc2C1=O (stereo not shown) | -0.771
27 | CN(C)CCN(Cc1ccccc1)Cc1ccccc1[N+](=O)[O-] | 3.48
28 | CC(C)CNC(=O)CN(c1ccc(Br)cc1)S(C)(=O)=O | 1.92

— PMC6919601, “Identification of Plasmodium dipeptidyl aminopeptidase allosteric inhibitors by high throughput screening” (PLoS ONE, 2019)
